From the supplement of paper PMC10681739
± gives the standard deviation of the averaged measurements. The full ranking holds about 4,000 sequences; the median of “arbitrary fluorescence units” is about 830, and the highest 2% start at about 6,500. This part holds few or none of the hits.

Molecular target: RUNX1 (UniProt Q01196)
Experiment: RUNX1 binding intensity (PBM fluorescence), RUNX1 alone (arbitrary fluorescence units); higher = stronger binding
Conditions: RUNX1 concentration 2 nM; ETS1 concentration 0 nM
Experimental: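 gcPBM on 36-bp genomic-derived probes (partner site mutated) containing one RUNX1 site and no ETS1 site. Recombinant human RUNX1 (2 nM) was incubated alone or with ETS1 (25 nM) and detected by anti-RUNX1 antibody fluorescence. Values are medians over 4 replicate spots (not normalised). The probes sit in constant array flanks that are not printed.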
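Also: Full-length recombinant human RUNX1 bound to double-stranded DNA microarray spots, detected with an Alexa488-labelled secondary antibody after the anti-RUNX1 primary, read as scanned spot fluorescence.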

Chain of UniProt Q01196 (Q01196 whole entry): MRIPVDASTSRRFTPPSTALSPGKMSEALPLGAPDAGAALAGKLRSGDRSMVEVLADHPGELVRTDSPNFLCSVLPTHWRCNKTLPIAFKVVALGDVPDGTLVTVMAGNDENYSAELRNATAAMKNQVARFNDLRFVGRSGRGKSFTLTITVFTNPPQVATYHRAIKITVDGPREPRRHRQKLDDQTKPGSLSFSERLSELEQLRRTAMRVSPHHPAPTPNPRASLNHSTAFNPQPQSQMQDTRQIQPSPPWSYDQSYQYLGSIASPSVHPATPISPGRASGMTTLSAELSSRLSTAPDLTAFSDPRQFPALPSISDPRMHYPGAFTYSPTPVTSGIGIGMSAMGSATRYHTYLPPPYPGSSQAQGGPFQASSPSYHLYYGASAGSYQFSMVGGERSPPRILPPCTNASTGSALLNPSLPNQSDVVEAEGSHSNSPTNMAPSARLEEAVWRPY

Row | Sequence | RUNX1 binding intensity
1 | GGGACCGCAGTCCCGGGGAGCGCACCGAAAGTTCTC | 788
2 | ACAGATGGTCCGACACTTCAGAAAACCACTCATTGT | 845
3 | AAGTTCGCAACCGCCAAGAGGGGAGACGGGCTGCGC | 764
4 | AGCTGGTTAGCCTGATAGAATGTGGGTGCCGAGGGC | 745
5 | TAGAAAAGGCAGCAGGGTAGGTGTGGTATCTGGGTC | 663
6 | TAAACTGGACCGCGAAGGGAATAGCCTGAACCCGCC | 661
7 | GCGCGGCTCATGAAGCGACGCGGTTCAGGGAGCGAA | 747
8 | GCGCCAACCGCGCGGCCGCGCTTGCCTTTTCAGGTG | 886
9 | AGCCAGAACCGCGCCCGGGCCGCGCAAGGAAGACTC | 824
10 | GAGGGTGAGCGGTCAAGAGACCTCCAGCAAGAGCGG | 707
11 | TTGTGGTTCGGGCGTGTCGCGGAGCCCGTATGTAAT | 756
12 | GGAGGTGGGGAGGACGTTCTGAAACCACACACATTT | 867
13 | CTGGCTCCCATTCCTGCTGTGGTGAGGGCTTCCCTC | 859
14 | AGCACCACATTCTACACCTCCAGCTCATGCTGCGTC | 990
15 | GTGTGGTCAAAGTAAAAGCTCAGTGTCTCCGTGTTC | 827
16 | CTTCTACTTGCTGCCCCGCCCCCAGCTGTGGTCACA | 1270
17 | TGGGGAGCAGCAAGCTGGGGGCGGTTGTGGAGGGAC | 797
18 | TCAGCTGTGGTGGGAGGATCTCCTATCAGGCTGGCT | 666
19 | GCAAACTGAAGAGAGGAACGAAGGCCGCAGAGCTTG | 734
20 | CGTCCCCGCAAAGCCGCGGCAGAAACTCCCGGCGGT | 1270
21 | TGGGACCGCTAATCGGAGAGGGTGCGCAAACGCTGG | 658
22 | GGCTAGCCTCCGATTCCCAGAGCCCCACAGCCGGGG | 851
23 | TGCAGAGCAGGCACCGCGGCACTTCGGCGAGCGCCG | 674
24 | ACAGGCAGCTGCGGCCGCCCGGCCTCCTCTCCCGCC | 829
25 | ACGCCGCGCATACGCGCTTTACGGCGGCCGCAAAAT | 801

Row | Sequence | RUNX1 binding intensity
26 | ATTTCAGTTGAAACCACTGTTCTTCATGTTTCTCTG | 944
27 | GCTGCAAGGCCGAAGCAGCGCGGTCGGACGGGCATG | 728
28 | GAGTGGGCGGTAACTCGCAGGCCGAACGTGACGCAA | 740
29 | GAGGGCTGTTGTGGTTAGGACGGCTTGCTGGGTGGG | 4480
30 | GGCGGGTACTGCGGCCCGCCCCACTTTCGGTTGTTG | 745
31 | GGAGCGGCGCGGTACTACTGGGGACGTCGGCGGCTG | 669
32 | TGACCTCCTCTGAGGCAGCAAGCTGCGGTGAAGTCT | 691
33 | GCCATCCAGGCAGTACAGACTCCCTGACCGCACTGA | 1110
34 | CTGCACAGGGAATTGAGTGTCGAGCTCACCGCACCG | 729
35 | ACTGCGGGCTACCTCCCCCACACCACTGCCGCCAAG | 1100
36 | CAGGATCTGCTGCGGGCCCGCCTTCGGTCCCCGGCC | 787
37 | CTAGCAGCCTCCGAGGGGGCTGCGGCCGGAGCGAGT | 735
38 | AGAAGCCCCGAATGGACGCGAAAGTGACCACGCGAA | 717
39 | GAAGATGCTGTGGTTGCATAGAGGAGGACATGAATC | 914
40 | TCAGCAAGTGGTGTGACCAGCATGTGAACCGCGGCA | 659
41 | CCGGGCGCCACTTTCGGTCCCCGTGGTCACGTGACC | 901
42 | CCCTCGCGCGGTCAGAGCGGCGCCGCGGAGGCGCAG | 791
43 | CTTCGGCCTTGCGTGATGGAAACCACCTCCTCTACA | 1150
44 | AACAGAGTGGGTTGTAAGGGACTGCCTGTGCATATA | 792
45 | TGCCGCCCGCAGCACCCTCCCCATTGCCTGGCTGTA | 1040
46 | CTCCCACCTCCGAAGCGGCGCAACCCACAACAGCCT | 1090
47 | AAAGCCAACCACAACATGAAGGGGAGGTACACAATA | 1390
48 | AGCACTCTGACCGCATGCAAAGGGAGTTCCTTTCGC | 2800
49 | CTGGAGAGGAGGTGGCCCCAGTGTGGTTCTGTAACT | 758
50 | TCCAACACAACCACAGCCCCCGTGCCGTAAGCTGTT | 1050

Row | Sequence | RUNX1 binding intensity
51 | AATGCTGTGGTTTCAGCCACAGCACCCGGCGAAGGT | 1170
52 | GTCACACTGTGGTTTTACACGGCAGCTCAGGTTGCC | 1780
53 | TTTCTGACTTGCTGTGTGCTTCAGAAACCTCAATGA | 824
54 | TCCAAGGCGCAAAAAACCCGCCCTAAACCGCACCCC | 1630
55 | TGCGCCGCTTCAGCTGCCCGAGGAAGAGCCGCAGTC | 701
56 | GACTGAGATTGCCTGCCAGCAACCACATGGCTTGTC | 832
57 | GCGGAATTGTGGCGGGAGGGGGAGGAGGAGGTCAGG | 1070
58 | TGAGGAATGTTTTACTGGGGCTGTGGGGCCAGGGTG | 643
59 | GAGGGGGAGGTTTTCGGGGCCTGTGGTTACTACACT | 1100
60 | GGAGCAGCAAGCGTCGCCGGGGGGCCCACAAGGGTA | 649
61 | ATGACTTCGAGGAGGTCTTCAGAAACCACAGGCTGA | 822
62 | GCATGTTTTACTGTGGAAGCGGCCCACAAAACCTGC | 799
63 | CTAGCTCCGCCCCGCAAGAAGGACTTTCGCGTCCTC | 808
64 | GCCGCCGCCGCAGGCCCCAGACCGAAAGTGAATGCC | 1050
65 | AACAGATCCTTCATGGCCCCCACTAGCCACAGGTTT | 930
66 | TAAGAGGAGACCTCAAACCAGAACCCTTCATGGCAG | 715
67 | CAGTCAAGAGGCAATTATAAACCACTGCCTCTTTGA | 843
68 | TTTACAGGCAATATCCAGAACAGGTAAACCCACAGA | 820
69 | ACAGAGCAGCAAGCAGCCCTCACCACAGATGAAGCA | 740
70 | GTGCGGACCGCGGGGAGCAAGCGCCCGCCGTAAGCA | 688
71 | CCTTGCCTGCGGGCTTTCTGGTCTCCGAATGGAGGC | 714
72 | TTACCCCATGAAAAGCCTCCTCACCGCAGTGACCAG | 1120
73 | GAACCCCAAGTTCCAGCTGGCACTGCGGCGGAGCCT | 678
74 | GACTGGATACAAGAATTCCGCGGACTGCCGCAGTCG | 684
75 | TGGGGTGTCCGAGCCGCCCCCGAACCGCGCACCCGA | 796

Row | Sequence | RUNX1 binding intensity
76 | ACAGTCGCACCGTAAGCTGCCCGCGGTGTTGACACA | 722
77 | TGTTGGAAACCACAGGGCCCGGTGGATAGCCGTCAC | 1360
78 | TTTTCCCACCTCCTAGGTTGTGGTGGGGATTACACA | 797
79 | GCGGCACACCGCGACTGCTAATTAGCCCGGGAGCTG | 726
80 | TTCCATTGCGGGCTCCCAACAGTACCCTTCGTCCCT | 1040
81 | TCCCCTCTCCCCAGCCGCCCGAGACCACAGCCACTC | 1190
82 | AGAGCTTGTGGGGAGGAGCCCTCTTCGTTCATGCCC | 687
83 | AGTAACCGCTAGCAATCTCATGAGCAGCAAGCACAA | 820 ± 9.8
84 | AAAGGGCGGGGAGACGGAATTACCGCGAGCTCTCCG | 768
85 | GGCCGTTCTTGCGCCTGCAGGGTGGTCAGCGGAGGT | 710
86 | ACTCAGTCCTGAACCACATTACTTTCATGTCTACGT | 1460
87 | TGGGCTGGGCCCGAACCTCACGGACCGCACCCAACC | 851
88 | TGGTTCAGCCCTCGGTGCCTGCAGGGGACCGCGGAG | 677
89 | GCGGCTGTGGGAGGGAGCAGAACGAAGGGAAGGAAG | 822
90 | ATGTAAACAAGGAGGTGAGTTCTGCGGCCACACTCT | 719
91 | TGAGAAGGCATGATAAGTGACCACATATTTATGCCA | 802
92 | GCCCGGGCCGCCGCAAGGCTGTCTGGGACATGTAGT | 752
93 | CTCCTGCGGCGACACGCCTAGCAGACGGCGCAAGGC | 773
94 | GGACATCAGATGTGGTAGAGCAGGCAGAGGCGCTGT | 615
95 | TGAGGCTCAGAGGAGGTGACTGGCCCGCAGGGTCAC | 693
96 | CCTGCAGCCGCAGCGGCACGCGCCTGAAGCCGGGCT | 773
97 | AGTCAGGCTGGCAACAGCGATCCCCGGCAACCACAA | 762
98 | GCAGCAAATGACGTCAGACCTCACTGCGGGTCTGAG | 779
99 | GGCGGCACTTGTGCGTACGCTGGAAAACCGCTGGGG | 723
100 | ACTACATGTCCCAGACAGCCTTGCGGCGGCCCGGGC | 846

Row | Sequence | RUNX1 binding intensity
101 | GGGTGGGCGGTCAAAGCGCACGCGGCAGGGCGAAAG | 734
102 | GCGCGGCTCCAACGCCGCAGCTTTCCAGGAACACTC | 829
103 | CCCACTGCCTGTCTGCTTCCCTCCACCGCTCAGACC | 1230
104 | TTTTATCCTTCGTTTTTTGTTCTTTGTGGTGGAGGT | 2070
105 | GAAGGCGGTTCAGGTTCGCGGCGGTTCCCGGGTTTT | 780
106 | GTTCTTCCACCTCCGCGTTACCCACAACGGCAGTGG | 1400
107 | GCCCACGCCGCAGGGAGGTGAGACTGAAGGACGCAC | 727
108 | GACTGCACCTCCTCTGCTTCGAGGTCGGTGGTTAGC | 836
109 | AGGCGCCCAATCCAGTGCATGGTCTGTGGCGCATGC | 686
110 | AGGAGCCCACCCGCAGAGCTGTGATTTGCTGACTCG | 782
111 | CCAGTTCCCGCCTACCGACCTGCTGCACCGCACGGA | 1120
112 | TAGCCGTACGTAAATGTTTGTGGTTCTCTGCATCTA | 1020
113 | CACGTCCTGCGGCCTCAGCCGCCTCTTCGGCCATCC | 964
114 | AGTTGCTGCCTAATCCTGCTGAGCCATTAGCCACAA | 903
115 | CCCATTCCCGAGAGTGGCAGGGCTGGGCGCGGTGGG | 754
116 | ACTAGAGCCAACCACCTGCCTTCAGTATTCCAGGCA | 841
117 | GCCGTGAATGCGGGCTCTCCTGCCGTAAGCTGCCCC | 824
118 | GAACCAGTTCCCTGAAACCATTTACCACATAAATCT | 1140
119 | CCTCAGGAGAAACCACCCTAGTAGTTCCTCTCCGAG | 858
120 | GGTCTCTGCTTACGGTCCTTGTGGTAGCACCTCTGT | 930
121 | CGAAGCCAGCAAATAAGGATAAACCACAGAAAGAAA | 1140
122 | TGCTCTGACCACTGAATAACGCCTCCGTCTGAACAC | 1260
123 | GATGAAAGAGGGAGTTCTCAAACCACCTTGCCAGTG | 767
124 | ACTGCCATACGCCTCAAACGCCAGCCGCAGGCTCTC | 888
125 | AGGGTTACAAATTCCGTAAACCACAGAAGCAGCAGA | 1310
